# Assay results from the BET-seq Pho4 binding data (Le et al. 2018).
# Some of the results follow. Values were computed here from the reads of four pooled replicates and scatter widely.
# Target: T1, Pho4 (S. cerevisiae) (UniProt P07270)
# T1 sequence: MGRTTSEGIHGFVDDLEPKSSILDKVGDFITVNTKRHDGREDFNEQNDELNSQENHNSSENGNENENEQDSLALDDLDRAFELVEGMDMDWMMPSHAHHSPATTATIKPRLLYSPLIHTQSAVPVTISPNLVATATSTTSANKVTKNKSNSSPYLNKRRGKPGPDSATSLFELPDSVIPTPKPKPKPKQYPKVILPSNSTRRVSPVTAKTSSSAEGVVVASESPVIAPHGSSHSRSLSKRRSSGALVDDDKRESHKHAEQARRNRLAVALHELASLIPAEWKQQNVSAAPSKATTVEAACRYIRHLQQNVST
# Experiment: relative binding free energy (BET-seq); higher = weaker binding
# Conditions: reference: library average
row,Sequence,relative binding free energy [kcal/mol]
1,TTGGACACGTGTATTA,0.12
2,TATAACACGTGGGCTG,-0.24
3,AAATTCACGTGAGTAG,0.4
4,AGGGACACGTGTCATG,-0.01
5,AATGTCACGTGACTGG,0.25
6,ATTGGCACGTGTAGGT,-0.08
7,TGGGTCACGTGGGGAT,0.04
8,GAAGGCACGTGTAGAA,0.1
9,ATGGGCACGTGTGTAC,-0.06
10,GGGGGCACGTGATTGC,0.04
11,ATTCTCACGTGGGTTG,0.12
12,AGTGTCACGTGGGACG,0.07
13,GTTGGCACGTGAATAA,0.06
14,AGGACCACGTGATGTG,-0.03
15,TGTGGCACGTGTTCAT,-0.03
16,GAAGGCACGTGCGTTG,-0.1
17,GAGGTCACGTGGTGCT,0.17
18,TTTCACACGTGGGCGG,-0.14
19,TGGGGCACGTGTGGGT,0.03
20,AGACGCACGTGTTTGG,-0.15
21,AGGTCCACGTGAGTTG,0.36
22,GTGCGCACGTGTGTAG,0.01
23,ATTTGCACGTGTATAG,-0.07
24,ATGTTCACGTGAAGTG,0.32
25,TACAGCACGTGGCAGG,0
26,ATCAGCACGTGGTAGG,-0.32

row,Sequence,relative binding free energy [kcal/mol]
1,TGGGTCACGTGACAGT,0.28
2,AGGGTCACGTGCAGAT,0.04
3,TTAGGCACGTGTACGT,-0.16
4,TGGGTCACGTGTTATC,0.3
5,GTTTGCACGTGGCGCA,-0.06
6,AGATGCACGTGTCAGG,0.02
7,CCTGGCACGTGGTGCG,-0.12
8,ATGTTCACGTGATTTG,0.28
9,TGATTCACGTGCATTG,0.27
10,TTATTCACGTGAAGGC,0.39
11,CGCGCCACGTGGGGGT,-0.35
12,TGGAGCACGTGCTTGA,-0.03
13,TGGAGCACGTGGTGCT,-0.1
14,AAAGTCACGTGGCGGT,0.14
15,AGGAGCACGTGTTATT,-0.09
16,GCATTCACGTGGGCGG,0.2
17,TTATCCACGTGAAGGG,0.36
18,GGCTTCACGTGGTGCG,0.18
19,CGGCGCACGTGAGGAG,0.22
20,GGTGCCACGTGGGGCA,-0.03
21,AGGGTCACGTGGGTCG,-0.03
22,TGAGACACGTGCGTAG,-0.03
23,GTGAACACGTGCGGTG,-0.04
24,CAAAACACGTGGTGGT,-0.02
25,TATTACACGTGGTGCT,0.04
26,ATTTACACGTGGCGAT,0.28

row,Sequence,relative binding free energy [kcal/mol]
1,GTTAGCACGTGTGATA,0.01
2,TTTAGCACGTGCGATT,-0.11
3,TAACGCACGTGAGTTG,0.14
4,TTTCGCACGTGTGCGA,0.03
5,CTGTTCACGTGAGTGT,0.41
6,TGGGTCACGTGGTTCA,0.19
7,CGGGCCACGTGGGGTG,-0.35
8,ACTGGCACGTGGGGTG,-0.34
9,AGTTTCACGTGTTATG,0.28
10,TGTAACACGTGGTACG,-0.07
11,TATTGCACGTGTGTAC,-0.05
12,ATATACACGTGAAGGG,0.19
13,GTGCTCACGTGAAGGT,0.27
14,TTGTCCACGTGTAGGG,-0.03
15,GCAGTCACGTGTAGTT,0.13
16,GTTGTCACGTGTTGCC,0.11
17,GTAGTCACGTGGATAA,0.19
18,AGTTGCACGTGGTGCG,-0.1
19,TTTGGCACGTGGGGGG,-0.16
20,TAATTCACGTGAATTT,0.36
21,GGGACCACGTGCGGGT,-0.27
22,ATTGACACGTGATGGT,0.14
23,TTGCTCACGTGTGATG,0.27
24,GGTAACACGTGGGGAA,-0.1
25,AACTTCACGTGGGTTT,0.21
26,ATTCGCACGTGGTTGA,-0.03

row,Sequence,relative binding free energy [kcal/mol]
1,TAGATCACGTGTAGGC,0.22
2,GATAGCACGTGAGGCG,0.19
3,GGTTTCACGTGGTGTG,0.33
4,GGTTACACGTGCTTTA,0.24
5,CAGTGCACGTGGTTGA,0.01
6,TGTGGCACGTGGCTTT,-0.08
7,TGTTTCACGTGTATTG,0.3
8,GTATACACGTGTCTTG,-0.03
9,CGAAGCACGTGGGGGC,-0.18
10,TGGATCACGTGTATAG,0
11,AATCTCACGTGTTATT,0.14
12,AGCATCACGTGTTTAA,0.26
13,CAGGTCACGTGTTTTG,0.15
14,GATCTCACGTGTTGGG,0.25
15,GTTATCACGTGTTAGG,0.22
16,CGTTTCACGTGGTAAT,0.21
17,AGCATCACGTGATGTG,0.18
18,TAAATCACGTGGAAAG,0.47
19,GGGTACACGTGGGTGA,-0.02
20,TATGGCACGTGGAATT,0.05
21,GAGGGCACGTGGAGAT,-0.09
22,GGTACCACGTGGGTTG,-0.08
23,GATTACACGTGAGTTT,0.34
24,TAACTCACGTGGTTGG,0.11
25,GAGTTCACGTGTGGTT,0.42
26,TGAGACACGTGGGGGA,0

row,Sequence,relative binding free energy [kcal/mol]
1,GTTTACACGTGAGCTA,0.45
2,CAGAGCACGTGTATGG,-0.08
3,TTTAACACGTGAGAAT,0.24
4,ATTATCACGTGAATAG,0.38
5,GTTCTCACGTGTGGTT,0.32
6,CTCGGCACGTGGCGGG,-0.17
7,CTTCGCACGTGTGGTT,-0.03
8,GTGGGCACGTGTTGGG,-0.01
9,TCAGGCACGTGTTAGT,-0.15
10,TTGTGCACGTGCGGTT,-0.12
11,CGGAGCACGTGTATTG,-0.08
12,TGCGGCACGTGTTATG,-0.06
13,CACTTCACGTGGGTGT,0.09
14,TTTACCACGTGTTTAG,-0.09
15,GGATGCACGTGGCTGT,-0.15
16,ATTGTCACGTGGAGGC,0.18
17,CGTAACACGTGTAGTT,0.08
18,TATATCACGTGTTTCA,0.03
19,GGTGGCACGTGCATCG,-0.16
20,TTTAACACGTGGGTGC,-0.1
21,AGGTTCACGTGTGCGT,0.19
22,GAAGGCACGTGGCAGG,-0.1
23,TCTTTCACGTGTTTGG,0.26
24,GTGGTCACGTGAGTAC,0.2
25,ATGTGCACGTGGTGGA,-0.11
26,TCAGTCACGTGGGACG,0.16

row,Sequence,relative binding free energy [kcal/mol]
1,GGCTTCACGTGAATTG,0.45
2,CGTGGCACGTGAGTAT,0.04
3,GTCAGCACGTGTTTTG,0
4,AATTGCACGTGGAGGC,-0.01
5,GTTATCACGTGAAGGC,0.34
6,GCGTGCACGTGGGTTT,-0.06
7,TAATTCACGTGTCTGT,0.31
8,TCGGTCACGTGCGTCT,0.28
9,AACTGCACGTGGATGT,0.07
10,TGTAGCACGTGGGAAA,-0.08
11,TTTGTCACGTGGCGAA,0.15
12,GCAGGCACGTGTGTGT,-0.14
13,AAATGCACGTGTGGGA,-0.07
14,TAGGTCACGTGATAGT,0.23
15,GACTTCACGTGGGTGG,0.27
16,GTATTCACGTGTACAT,0.38
17,GTGTTCACGTGATTGG,0.46
18,TTTACCACGTGATTGT,0.12
19,GAGTACACGTGGATGG,0.15
20,TCTTGCACGTGAAGGT,0.28
21,TGGTTCACGTGAGGTT,0.35
22,GAGGGCACGTGGTTAT,-0.04
23,GCTTGCACGTGGGCGT,-0.17
24,GTAGGCACGTGAGAGG,0.27
25,GTCGTCACGTGCGTGG,-0.01
26,TCGGTCACGTGAGTGG,0.26

row,Sequence,relative binding free energy [kcal/mol]
1,ATTTTCACGTGCGTGT,0.26
2,AGTTTCACGTGATCTT,0.19
3,AGTCTCACGTGGCTTG,0.16
4,TTGTTCACGTGATGAT,0.46
5,TTTCGCACGTGCGTTT,-0.06
6,TGTATCACGTGTTAAG,0.1
7,AGGCGCACGTGTAGTG,-0.07
8,TTGTGCACGTGAGCGT,0.11
9,GCTTTCACGTGGAAAG,0.43
10,TTAGTCACGTGTTGGC,0.06
11,TGTGGCACGTGGCAGC,-0.09
12,CTTAGCACGTGTAGTG,0.02
13,ACTGACACGTGAAGGG,0.39
14,TACTACACGTGAGTGT,0.33
15,ATGGGCACGTGTACGT,-0.01
16,AGTAGCACGTGTGATA,-0.1
17,AGTGGCACGTGAGTTT,0.23
18,TCGGCCACGTGGTCGG,-0.09
19,TGTGACACGTGATGGA,0.03
20,CTAGGCACGTGTGTTT,-0.11
21,GATCGCACGTGGTTGG,0.1
22,AGTAACACGTGTGAGG,-0.09
23,TCGGCCACGTGTTGTT,-0.01
24,TGCCGCACGTGGGGAA,-0.1
25,ATAGTCACGTGGCGTC,0.11
26,ACGGGCACGTGGCGTT,-0.28

row,Sequence,relative binding free energy [kcal/mol]
1,ACTGGCACGTGTGGGA,0.1
2,AGAAGCACGTGTTGGA,-0.06
3,TTTTTCACGTGCTGCT,0.24
4,AGTTTCACGTGGCAGT,0.27
5,AGCGTCACGTGGAAGT,0.08
6,CTTTGCACGTGAAGGT,0.26
7,AGGGTCACGTGTAGGT,0.11
8,AGTTTCACGTGGCTAA,0.27
9,GTAAGCACGTGAGATG,0.16
10,GGGCTCACGTGGTGAA,0.34
11,GGTATCACGTGTGGCT,0.2
12,CTTTTCACGTGGTTTG,0.27
13,TCTGACACGTGAAGGG,0.31
14,TGTTTCACGTGTATGG,0.21
15,TACTACACGTGTGTGG,0.19
16,GGAGTCACGTGATTAA,0.22
17,TTTGACACGTGTTGAG,0.07
18,TTTTCCACGTGTTCGG,0.02
19,AGTGTCACGTGCGGTT,0.1
20,TGGTCCACGTGTGGAA,0.06
21,TGGCGCACGTGCAGGG,-0.14
22,TGGAGCACGTGAAGGT,0.16
23,TGTTGCACGTGTGGAT,0.06
24,TTGAGCACGTGGCGGG,-0.13
25,GGTTGCACGTGTCCTG,0.01
26,ACGATCACGTGGGGTA,-0.08

row,Sequence,relative binding free energy [kcal/mol]
1,AAGGGCACGTGTTAGC,0.03
2,TCATGCACGTGTGTGC,-0.04
3,ATTGACACGTGATAGA,0.08
4,CTTTTCACGTGATTTG,0.38
5,ATAGTCACGTGTTTCT,0.09
6,TAGGGCACGTGTCACG,-0.09
7,TTACACACGTGAAGTG,0.39
8,TCTAGCACGTGTCGTG,0.07
9,ACCAGCACGTGGGGGT,-0.23
10,CTAAGCACGTGTATGT,-0.02
11,ATTTTCACGTGAGTTT,0.32
12,TATCTCACGTGGGTAG,0.01
13,CGGATCACGTGGGGAT,0.14
14,GTCATCACGTGTGGAG,0.21
15,GTTGTCACGTGCGAGG,0
16,AGGGGCACGTGAATGT,0.12
17,TGATCCACGTGTGAGG,0.06
18,AGAATCACGTGATGTA,0.24
19,GGGGACACGTGTCGGC,0.11
20,TGGACCACGTGTTGGT,0.1
21,AATGTCACGTGCTGAG,0.25
22,TATTTCACGTGGGGTG,0.18
